Measurements as given in the supplement of paper PMC4967469.

Legend:
Assay in all cases: Viability of human cancer cell lines after 72 h of drug (GDSC screen)
[1] = compound: COc1cc(/C=C/C(=O)N2CCC=CC2=O)cc(OC)c1OC [piperlongumine]; conditions: top dose 10 µM
Experimental: (§1)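 Human cancer cell lines in 384-well plates, medium with 10% serum, drug for 72 h over a 256-fold dose range (nine 2-fold or five 4-fold steps up to the top dose). Adherent lines were fixed and stained with the nucleic acid dye Syto60, suspension lines read with resazurin; signal relative to control wells, capped at 0 and 100%. One two-parameter sigmoid per drug and line, fitted in a mixed model over all curves with the slope shared within a line.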

[2] = compound: CC1(C)CCC(c2ccc(Cl)cc2)=C(CN2CCN(c3ccc(C(=O)NS(=O)(=O)c4ccc(N[C@H](CCN5CCOCC5)CSc5ccccc5)c(S(=O)(=O)C(F)(F)F)c4)cc3)CC2)C1 [ABT-263]; conditions: top dose 2 µM; top dose inferred
Experimental: as §1

[3] = compound: Cn1cc(/C=C2\C(=O)Nc3cccnc32)c2ccccc21 [GW 441756]; conditions: top dose 2 µM; top dose inferred
Experimental: as §1

[4] = compound: CC(=O)Nc1nc(C)c(-c2ccc(Cl)c(S(=O)(=O)NCCO)c2)s1 [PIK-93]; conditions: top dose 20 µM
Experimental: as §1

Cell Line: CRO-AP2 (B-cell lymphoma, suspension)
- AUC [1]: 0.574
- IC50 [1]: 0.965 µM
- AUC [2]: 0.983
- IC50 [2]: > 2 µM
- AUC [3]: 0.986
- IC50 [3]: > 2 µM

Cell Line: PC-3 (prostate, adherent)
- AUC [1]: 0.724
- IC50 [1]: 3.16 µM
- AUC [2]: 0.98
- IC50 [2]: > 2 µM
- AUC [4]: 0.702
- IC50 [4]: 5.29 µM

Cell Line: TCCSUP (bladder, adherent)
- AUC [1]: 0.745
- IC50 [1]: 3.54 µM
- AUC [2]: 0.969
- IC50 [2]: > 2 µM
- AUC [4]: 0.949
- IC50 [4]: > 20 µM

Cell Line: ASH-3 (thyroid, adherent)
- AUC [1]: 0.793
- IC50 [1]: 4.57 µM
- AUC [2]: 0.986
- IC50 [2]: > 2 µM
- AUC [4]: 0.981
- IC50 [4]: > 20 µM

Cell Line: SW900 (lung squamous cell carcinoma, adherent)
- AUC [1]: 0.786
- IC50 [1]: 5.08 µM
- AUC [2]: 0.945
- IC50 [2]: > 2 µM
- AUC [4]: 0.933
- IC50 [4]: > 20 µM

Cell Line: NCI-H522 (lung adenocarcinoma, adherent)
- AUC [1]: 0.77
- IC50 [1]: 4.52 µM
- AUC [2]: 0.929
- IC50 [2]: > 2 µM
- AUC [4]: 0.848
- IC50 [4]: 19.2 µM

Cell Line: SK-CO-1 (large intestine, adherent)
- AUC [1]: 0.774
- IC50 [1]: 3.69 µM
- AUC [2]: 0.678
- IC50 [2]: 0.38 µM
- AUC [4]: 0.76
- IC50 [4]: 6.66 µM

Cell Line: KARPAS-1106P (B-cell lymphoma, suspension)
- AUC [1]: 0.837
- IC50 [1]: 5.1 µM
- AUC [2]: 0.974
- IC50 [2]: > 2 µM
- AUC [3]: 0.989
- IC50 [3]: > 2 µM

Cell Line: BHY (head and neck, adherent)
- AUC [1]: 0.725
- IC50 [1]: 2.73 µM
- AUC [2]: 0.955
- IC50 [2]: > 2 µM
- AUC [4]: 0.814
- IC50 [4]: 10.9 µM

Cell Line: GAMG (glioma, adherent)
- AUC [1]: 0.812
- IC50 [1]: 5.68 µM
- AUC [2]: 0.906
- IC50 [2]: > 2 µM
- AUC [4]: 0.729
- IC50 [4]: 5.83 µM

Cell Line: OSC-19 (head and neck, adherent)
- AUC [1]: 0.76
- IC50 [1]: 3.65 µM
- AUC [2]: 0.953
- IC50 [2]: > 2 µM
- AUC [4]: 0.879
- IC50 [4]: > 20 µM

Cell Line: A673 (rhabdomyosarcoma, adherent)
- AUC [1]: 0.677
- IC50 [1]: 1.83 µM
- AUC [2]: 0.988
- IC50 [2]: > 2 µM
- AUC [4]: 0.921
- IC50 [4]: > 20 µM

Cell Line: A172 (glioma, adherent)
- AUC [1]: 0.767
- IC50 [1]: 3.59 µM
- AUC [2]: 0.987
- IC50 [2]: > 2 µM
- AUC [4]: 0.876
- IC50 [4]: 18.6 µM

Cell Line: NCI-H2066 (small cell lung carcinoma, adherent)
- AUC [1]: 0.953
- IC50 [1]: > 10 µM
- AUC [2]: 0.889
- IC50 [2]: > 2 µM

Cell Line: KYSE-70 (oesophagus, adherent)
- AUC [1]: 0.959
- IC50 [1]: > 10 µM
- AUC [4]: 0.911
- IC50 [4]: > 20 µM
- AUC [3]: 0.955
- IC50 [3]: > 2 µM

Cell Line: CAKI-1 (kidney, adherent)
- AUC [1]: 0.739
- IC50 [1]: 4.33 µM
- AUC [4]: 0.868
- IC50 [4]: > 20 µM
- AUC [3]: 0.957
- IC50 [3]: > 2 µM

Cell Line: HOP-92 (large cell lung carcinoma, adherent)
- AUC [1]: 0.734
- IC50 [1]: 3.27 µM
- AUC [4]: 0.961
- IC50 [4]: > 20 µM
- AUC [3]: 0.939
- IC50 [3]: > 2 µM

Cell Line: HSC-4 (head and neck, adherent)
- AUC [1]: 0.686
- IC50 [1]: 2.49 µM
- AUC [4]: 0.906
- IC50 [4]: > 20 µM
- AUC [3]: 0.774
- IC50 [3]: 1.06 µM

Cell Line: SK-LU-1 (lung adenocarcinoma, adherent)
- AUC [1]: 0.8
- IC50 [1]: 6.43 µM
- AUC [2]: 0.893
- IC50 [2]: > 2 µM
- AUC [4]: 0.912
- IC50 [4]: > 20 µM

Cell Line: 786-0 (kidney, adherent)
- AUC [1]: 0.682
- IC50 [1]: 1.93 µM
- AUC [2]: 0.985
- IC50 [2]: > 2 µM
- AUC [4]: 0.896
- IC50 [4]: > 20 µM

Cell Line: H2591 (mesothelioma, adherent)
- AUC [1]: 0.806
- IC50 [1]: 7.01 µM
- AUC [2]: 0.953
- IC50 [2]: > 2 µM
- AUC [4]: 0.842
- IC50 [4]: > 20 µM

Cell Line: Mewo (melanoma, adherent)
- AUC [1]: 0.749
- IC50 [1]: 3.8 µM
- AUC [4]: 0.937
- IC50 [4]: > 20 µM
- AUC [3]: 0.941
- IC50 [3]: > 2 µM

Cell Line: NCI-H441 (lung adenocarcinoma, adherent)
- AUC [1]: 0.832
- IC50 [1]: > 10 µM
- AUC [4]: 0.962
- IC50 [4]: > 20 µM
- AUC [3]: 0.981
- IC50 [3]: > 2 µM

Cell Line: ChaGo-K-1 (non-small cell lung carcinoma, adherent)
- AUC [1]: 0.701
- IC50 [1]: 2.55 µM
- AUC [2]: 0.962
- IC50 [2]: > 2 µM
- AUC [4]: 0.877
- IC50 [4]: > 20 µM

Cell Line: Daoy (medulloblastoma, adherent)
- AUC [1]: 0.614
- IC50 [1]: 1.24 µM
- AUC [4]: 0.868
- IC50 [4]: 15.4 µM
- AUC [3]: 0.981
- IC50 [3]: > 2 µM

Cell Line: SK-MEL-24 (melanoma, adherent)
- AUC [1]: 0.772
- IC50 [1]: 4.68 µM
- AUC [4]: 0.795
- IC50 [4]: 11.6 µM
- AUC [3]: 0.969
- IC50 [3]: > 2 µM

Cell Line: MKN45 (stomach, adherent)
- AUC [1]: 0.964
- IC50 [1]: > 10 µM
- AUC [4]: 0.937
- IC50 [4]: > 20 µM
- AUC [3]: 0.956
- IC50 [3]: > 2 µM

Cell Line: HMV-II (melanoma, adherent)
- AUC [1]: 0.805
- IC50 [1]: 6.44 µM
- AUC [4]: 0.855
- IC50 [4]: > 20 µM
- AUC [3]: 0.918
- IC50 [3]: > 2 µM

Cell Line: BPH-1 (prostate, adherent)
- AUC [1]: 0.739
- IC50 [1]: 3.28 µM
- AUC [2]: 0.929
- IC50 [2]: > 2 µM
- AUC [4]: 0.57
- IC50 [4]: 1.98 µM

Cell Line: JHOS-4 (ovary, adherent)
- AUC [2]: 0.803
- IC50 [2]: 1.57 µM
- AUC [3]: 0.77
- IC50 [3]: 1.12 µM

Cell Line: SK-HEP-1 (liver, adherent)
- AUC [1]: 0.716
- IC50 [1]: 2.43 µM
- AUC [2]: 0.989
- IC50 [2]: > 2 µM
- AUC [4]: 0.894
- IC50 [4]: > 20 µM

Cell Line: OVCAR-3 (ovary, adherent)
- AUC [1]: 0.756
- IC50 [1]: 3.73 µM
- AUC [2]: 0.926
- IC50 [2]: > 2 µM
- AUC [4]: 0.984
- IC50 [4]: > 20 µM

Cell Line: MDA-MB-175-VII (breast, adherent)
- AUC [1]: 0.861
- IC50 [1]: 9.95 µM
- AUC [4]: 0.851
- IC50 [4]: 17.9 µM
- AUC [3]: 0.906
- IC50 [3]: > 2 µM

Cell Line: HLE (liver, adherent)
- AUC [1]: 0.683
- IC50 [1]: 1.97 µM
- AUC [2]: 0.963
- IC50 [2]: > 2 µM
- AUC [4]: 0.796
- IC50 [4]: 8.75 µM

Cell Line: IGR-37 (melanoma, adherent)
- AUC [1]: 0.708
- IC50 [1]: 2.27 µM
- AUC [2]: 0.983
- IC50 [2]: > 2 µM
- AUC [4]: 0.795
- IC50 [4]: 8.35 µM

Cell Line: UM-UC-3 (bladder, adherent)
- AUC [1]: 0.666
- IC50 [1]: 1.75 µM
- AUC [4]: 0.685
- IC50 [4]: 3.95 µM
- AUC [3]: 0.953
- IC50 [3]: > 2 µM

Cell Line: MDA-MB-436 (breast, adherent)
- AUC [1]: 0.662
- IC50 [1]: 2 µM
- AUC [4]: 0.831
- IC50 [4]: 17.5 µM
- AUC [3]: 0.907
- IC50 [3]: > 2 µM

A lower IC50 marks a more sensitive line; a limit (>, <) means that the fit lies beyond the doses tested. AUC, from the same fit, is the share of area under the viability curve across the 256-fold dose range; it is 1 without any effect and falls as sensitivity rises. For some assays here: The top dose, if marked as inferred, is not printed in the source and was worked back from the curve model.
